In patent US6448281B1 (Boehringer Ingelheim (Canada) Ltd., priority 2000, dated 2002):

Molecular target: hepatitis C virus RNA dependent polymerase (NS5B) (Hepacivirus hominis (Hepatitis C virus), UniProt P26663)
Assay: Inhibition of NS5B RNA dependent RNA polymerase activity (SPA, UMP-[5,6 3H] incorporation)
[1] = IC50 μM, first compound table (printed title TABLE 10; Table 1)

O=C(O)COc1ccc2[nH]cc(C[C@H](NC(=O)c3ccc4c(c3)nc(-c3ccc(OCC(=O)NCCNC(=O)c5ccc(C(=O)c6ccccc6)cc5)cc3)n4C3CCCCC3)C(=O)O)c2c1 [Entry 12026, (S)-3-(5-Carboxymethoxy-1H-indol-3-yl)-2-({1-[1-cyclohexyl-2-(4-{[2-({1-[4-(1-phenyl-methanoyl)-phenyl]-methanoyl}-amino)-ethylcarbamoyl]-methoxy}-phenyl)-1H-benzimidazol-5-yl]-methanoyl}-amino)-propionic Acid]
IC50 (IC50, Table 12): < 1 µM

COc1ccc([C@@H](C)NC(=O)c2ccc3c(c2)nc(-c2ccccn2)n3C2CCCCC2)cc1OC [Entry 2042, 1-Cyclohexyl-2-pyridin-2-yl-1h-benzoimidazole-5-carboxylic Acid [(R)-1(3,4-dimethoxyphenyl)ethyl]amide]
IC50 (IC50 μM, Table 2): 1 to 5 µM

C[C@@H](O)[C@H](NC(=O)c1ccc2c(c1)nc(-c1ccccn1)n2C1CCCCC1)C(=O)O [Entry 2019]
IC50 (IC50 μM, Table 2): 10 to 25 µM

O=C(NC(Cc1ccc2cc(O)ccc2c1)C(=O)O)c1ccc2c(c1)nc(-c1ccoc1)n2C1CCCCC1 (racemic) [Entry 21001, 2-{[1-(1-Cyclohexyl-2-furan-3-yl-1H-benzimidazol-5-yl)-methanoyl]-amino}-3-(6-hydroxy-naphthalen-2-yl)-propionic Acid]
IC50 (IC50, Table 21): < 1 µM

NC(=O)[C@H](Cc1c[nH]c2ccc(Nc3c(O)c(=O)c3=O)cc12)NC(=O)c1ccc2c(c1)nc(-c1ccoc1)n2C1CCCCC1 [Entry 13004, 1-Cyclohexyl-2-furan-3-yl-1H-benzimidazole-5-carboxylic Acid {(S)-1-Carbamoyl-2-[5-(2-hydroxy-3,4-dioxo-cyclobut-1-enylamino)-1H-indol-3-yl]-ethyl}-amide]
IC50 (IC50, Table 13): < 1 µM

O=C(Cc1ccc2c(c1)nc(-c1ccccn1)n2C1CCCCC1)N[C@@H](Cc1ccc(O)cc1)C(=O)O [Entry 9001]
IC50 (IC50 μM, Table 9): 10 to 25 µM

COc1ccc(CNC(=O)c2ccc3c(c2)nc(-c2ccccn2)n3[C@H]2CCCC[C@@H]2O)cc1OC [Entry 8001]
IC50 (IC50 μM, Table 8): 10 to 25 µM

CC(C)(Oc1ccc(C[C@H](NC(=O)c2ccc3c(c2)nc(-c2ccoc2)n3C2CCCCC2)C(=O)O)cc1)C(=O)O [Entry 16018]
IC50 (IC50, Table 16): < 1 µM

O=C(N[C@@H](Cc1c[nH]c2ccc(NS(=O)(=O)C(F)(F)F)cc12)C(=O)O)c1ccc2c(c1)nc(-c1ccoc1)n2C1CCCCC1 [Entry 11026]
IC50 (Table 11): < 1 µM

Nc1nc([C@H](Cc2ccc(-c3nnn[nH]3)cc2)NC(=O)c2ccc3c(c2)nc(-c2ccoc2)n3C2CCCCC2)cs1 [Entry 16059]
IC50 (IC50, Table 16): < 1 µM

CC1CCCCC1n1c(-c2ccoc2)nc2cc(C(=O)NC(Cc3c[nH]c4ccc(O)cc34)C(=O)O)ccc21 (centres unmarked) [Entry 3024]
IC50 (IC50 μM, Table 3): 1 to 5 µM

O=C(O)CNC(=O)N1CCC(NC(=O)c2ccc3c(c2)nc(-c2ccoc2)n3C2CCCCC2)C1 (centres unmarked) [Entry 1191]
IC50 [1]: 10 to 25 µM

Cn1ccnc1-c1nc2cc(C(=O)N[C@@H](Cc3c[nH]c4ccc(O)cc34)C(=O)O)ccc2n1C1CCCCC1 [Entry 12009]
IC50 (IC50, Table 12): < 1 µM

Cc1[nH]c2ccc(O)cc2c1C[C@H](NC(=O)c1ccc2c(c1)nc(-c1ccoc1)n2C1CCCCC1)C(=O)O [Entry 11020, (S)-2-{[1-(1-Cyclohexyl-2-furan-3-yl-1H-benzoimidazol-5-yl)-methanoyl]-amino]-3-(5-hydroxy-2-methyl-1H-indol-3-yl)-propionic Acid]
IC50 (IC50, Table 11): < 1 µM

O=C(O)COc1ccc2[nH]cc(C[C@H](NC(=O)c3ccc4c(c3)nc(-c3ccoc3)n4C3CCCCC3)C(=O)O)c2c1 [Entry 11009]
IC50 (IC50, Table 11): < 1 µM

O=C(O)/C=C/c1ccc(C[C@H](NC(=O)c2ccc3c(c2)nc(-c2ccoc2)n3C2CCCCC2)C(=O)O)cc1 [Entry 16040]
IC50 (IC50, Table 16): < 1 µM

O=C(N[C@H](CO)C(=O)O)c1ccc2c(c1)nc(-c1ccccn1)n2C1CCCCC1 [Entry 2020]
IC50 (IC50 μM, Table 2): 10 to 25 µM

COc1ccc(C(NC(=O)c2ccc3c(c2)nc(-c2cccn2C)n3C2CCCCC2)C(=O)O)cc1OC (centres unmarked) [Entry 2063]
IC50 (IC50 μM, Table 2): 1 to 5 µM

CC/C(=C\c1cccc(NC(=O)c2ccc3c(c2)nc(-c2ccoc2)n3C2CCCCC2)c1)C(=O)O [Entry 1236]
IC50 [1]: 5 to 10 µM

O=C(O)COc1ccc2[nH]cc(CCNC(=O)c3ccc4c(c3)nc(-c3ccoc3)n4C3CCCCC3)c2c1 [Entry 11011]
IC50 (IC50, Table 11): < 1 µM

O=C(N[C@@H](Cc1c[nH]c2ccc(O)cc12)c1cscn1)c1ccc2c(c1)nc(-c1ccccn1)n2C1CCCCC1 [Entry 15001]
IC50 (IC50, Table 15): < 1 µM

CN(C)c1nc([C@H](Cc2ccc(O)cc2)NC(=O)c2ccc3c(c2)nc(-c2ccoc2)n3C2CCCCC2)cs1 [Entry 1241, 1-Cyclohexyl-2-furan-3-yl-1H-benzimidazole-5-carboxylic Acid [(S)-1-(2-Dimethylamino-thiazol-4-yl)-2-(4-hydroxy-phenyl)-ethyl]-amide]
IC50 [1]: 1 to 5 µM

C=C(CC(=O)N[C@H]1CC[C@H](NC(=O)c2ccc3c(c2)nc(-c2ccoc2)n3C2CCCCC2)CC1)C(=O)O [Entry 1223]
IC50 [1]: 10 to 25 µM

CC(C(=O)O)c1ccc(NC(=O)c2ccc3c(c2)nc(-c2ccoc2)n3C2CCCCC2)cc1 (centres unmarked) [Entry 1238]
IC50 [1]: 10 to 25 µM

Cc1cc(OCC(=O)O)cc(C)c1CC(NC(=O)c1ccc2c(c1)nc(-c1ccoc1)n2C1CCCCC1)C(=O)O (centres unmarked) [compound 20001]
IC50 (IC50, Table 20): < 1 µM

CS(=O)(=O)Nc1ccc2[nH]cc(C[C@H](NC(=O)c3ccc4c(c3)nc(-c3ccoc3)n4C3CCCCC3)C(=O)O)c2c1 [Entry 11025, (S)-2-{[1-(1-Cyclohexyl-2-furan-3-yl-1H-benzimidazol-5-yl)-methanoyl]-amino}-3-(5-methanesulfonylamino-1H-indol-3-yl)-propionic Acid]
IC50 (IC50, Table 11): < 1 µM

O=C(N[C@@H](Cc1ccc(O)cc1)C(=O)NCCN1CCOCC1)c1ccc2c(c1)nc(-c1ccoc1)n2C1CCCCC1 [Entry 1118]
IC50 [1]: 1 to 5 µM

O=C(N[C@H](CO)Cc1ccc(O)cc1)c1ccc2c(c1)nc(-c1ccoc1)n2C1CCCCC1 [Entry 1021]
IC50 [1]: 1 to 5 µM

COc1ccc(CCNC(=O)c2ccc3c(c2)nc(-c2ccncc2)n3C2CCCCC2)cc1OC [Entry 2003]
IC50 (IC50 μM, Table 2): 10 to 25 µM

O=C(O)C[C@H](Cc1ccc(O)cc1)NC(=O)c1ccc2c(c1)nc(-c1ccoc1)n2C1CCCCC1 [Entry 1230, (S)-3-{[1-(1-Cyclohexyl-2-furan-3-yl-1H-benzimidazol-5-yl)-methanoyl]-amino}-4-(4-hydroxy-phenyl)-butyric Acid]
IC50 [1]: 1 to 5 µM

O=C(O)c1cccc(CC(NC(=O)c2ccc3c(c2)nc(-c2ccoc2)n3C2CCCCC2)C(=O)O)c1 (racemic) [Entry 16053, 3-(2-Carboxy-2-{[1-(1-cyclohexyl-2-furan-3-yl-1H-benzimidazol-5-yl)methanoyl]-amino}-ethyl)-benzoic Acid]
IC50 (IC50, Table 16): < 1 µM

O=C(N[C@H](C(=O)O)[C@H](O)c1ccc(-c2nnn[nH]2)cc1)c1ccc2c(c1)nc(-c1ccoc1)n2C1CCCCC1 [Entry 18001]
IC50 (IC50, Table 18): < 1 µM

COc1ccc(C(NC(=O)c2ccc3c(c2)nc(-c2ccoc2)n3C2CCCC2)C(=O)O)cc1OC (centres unmarked) [Entry 3002]
IC50 (IC50 μM, Table 3): < 1 µM

Cc1cc(O)cc(C)c1CC(NC(=O)c1ccc2c(c1)nc(-c1ccoc1)n2C1CCCCC1)C(=O)O (centres unmarked) [Entry 1069]
IC50 [1]: 1 to 5 µM

COC(=O)[C@H](Cc1c(C)[nH]c2ccc(OCC(=O)O)cc12)NC(=O)c1ccc2c(c1)nc(-c1ccoc1)n2C1CCCCC1 [Entry 11015]
IC50 (IC50, Table 11): < 1 µM

Cn1cc(C[C@H](NC(=O)c2ccc3c(c2)nc(-c2ccoc2)n3C2CCCCC2)C(=O)O)c2cc(OCC(=O)O)ccc21 [Entry 11016]
IC50 (IC50, Table 11): < 1 µM

O=C(N[C@@H](Cc1c[nH]c2ccc(O)cc12)C(=O)O)c1ccc2c(c1)nc(-c1ccc(OCCO)cc1)n2C1CCCCC1 [Entry 12010]
IC50 (IC50, Table 12): < 1 µM

O=C(N[C@@H](Cc1ccc(O)cc1)C(=O)NCc1ccncc1)c1ccc2c(c1)nc(-c1ccoc1)n2C1CCCCC1 [Entry 1112]
IC50 [1]: 1 to 5 µM

O=C(O)COc1ccc2[nH]cc(C[C@H](NC(=O)c3ccc4c(c3)nc(-c3ccc(C(=O)NCCNC(=S)Nc5ccc(-c6c7ccc(=O)cc-7oc7cc(O)ccc67)c(C(=O)O)c5)cc3)n4C3CCCCC3)C(=O)O)c2c1 [Entry 12021, 5-[3-(2-{[1-(4-{5-[(S)-1-Carboxy-2-(5-carboxymethoxy-1H-indol-3-yl)-ethylcarbamoyl]-1-cyclohexyl-1H-benzimidazol-2-yl}-phenyl)-methanoyl]-amino}-ethyl)-thioureido]-2-(6-hydroxy-3-oxo-3H-xanthen-9-yl)-benzoic Acid]
IC50 (IC50, Table 12): < 1 µM

O=C(NC(Cc1c[nH]c2ccc(O)cc12)c1ccccn1)c1ccc2c(c1)nc(-c1ccoc1)n2C1CCCCC1 (racemic) [Entry 11032, 1-Cyclohexyl-2-furan-3-yl-1H-benzimidazole-5-carboxylic acid [2-(5-Hydroxy-1H-indol-3-yl)-1-pyridin-2-yl-ethyl]-amide]
IC50 (IC50, Table 11): < 1 µM

O=C(O)COc1ccc2c(c1)c(CCNC(=O)c1ccc3c(c1)nc(-c1ccoc1)n3C1CCCCC1)cn2CC(=O)O [Entry 11012]
IC50 (IC50, Table 11): < 1 µM

O=C(O)COc1ccc2[nH]cc(C[C@H](NC(=O)c3ccc4c(c3)nc(-c3ccoc3)n4C3CCCC3)C(=O)O)c2c1 [Entry 22007]
IC50 (IC50 μM, Table 22): < 1 µM

CCOC(=O)c1cccc(NC(=O)N2CCC(NC(=O)c3ccc4c(c3)nc(-c3ccoc3)n4C3CCCCC3)C2)c1 (centres unmarked) [Entry 1203]
IC50 [1]: 10 to 25 µM

O=C(O)Cn1cnc(C[C@H](NC(=O)c2ccc3c(c2)nc(-c2ccoc2)n3C2CCCCC2)C(=O)O)c1 [Entry 19001]
IC50 (IC50, Table 19): < 1 µM

COc1ccc(C(NC(=O)c2ccc3c(c2)nc(-c2ccccn2)n3C2CCCCC2)C(=O)O)cc1OC (centres unmarked) [Entry 2049]
IC50 (IC50 μM, Table 2): 1 to 5 µM

CC(C)n1c(-c2ccoc2)nc2cc(C(=O)N[C@@H](Cc3c[nH]c4ccc(O)cc34)C(=O)O)ccc21 [Entry 3033]
IC50 (IC50 μM, Table 3): 1 to 5 µM

O=C(O)COc1ccc(CC(OC(=O)c2ccc3c(c2)nc(-c2ccoc2)n3C2CCCCC2)C(=O)O)cc1 (racemic) [Entry 5005, 1-Cyclohexyl-2-furan-3-yl-1H-benzimidazole-5-carboxylic Acid 1-Carboxy-2-(4-carboxymethoxy-phenyl)-ethyl Ester]
IC50 (IC50 μM, Table 5): < 1 µM
